# Laboratory results published in the supplement of paper PMC4967469.
# By IC50 is meant the dose at which the fit gives 50% viability; a limit (>, <) means that the fit lies beyond the doses tested. AUC is the area under the same curve over the 256-fold range up to the top dose, as a fraction; values near 1 show little effect.
# Compound: Cn1c(=O)n(-c2ccc(C(C)(C)C#N)cc2)c2c3cc(-c4cnc5ccccc5c4)ccc3ncc21 [NVP-BEZ235]
# Experiment: Viability of human cancer cell lines after 72 h of drug (GDSC screen)
# Protocol: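 Human cancer cell lines in 384-well plates, medium with 10% serum, drug for 72 h over a 256-fold dose range (nine 2-fold or five 4-fold steps up to the top dose). Adherent lines were fixed and stained with the nucleic acid dye Syto60, suspension lines read with resazurin; signal relative to control wells, capped at 0 and 100%. One two-parameter sigmoid per drug and line, fitted in a mixed model over all curves with the slope shared within a line.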
Cell Line,AUC,IC50
"TT (thyroid, adherent, top dose 2 µM)",0.918,> 2000 nM
"OAW-28 (ovary, adherent, top dose 0.25 µM)",0.91,> 250 nM
"DB (B-cell lymphoma, suspension, top dose 0.25 µM)",0.593,29.2 nM
"NCI-H1703 (lung adenocarcinoma, adherent, top dose 0.25 µM)",0.754,101 nM
"JHH-4 (liver, adherent, top dose 0.25 µM)",0.765,91.2 nM
"Daudi (Burkitt lymphoma, suspension, top dose 0.25 µM)",0.857,163 nM
"SHP-77 (small cell lung carcinoma, semi-adherent, top dose 0.25 µM)",0.965,> 250 nM
"U-698-M (B-cell leukaemia, suspension, top dose 0.25 µM)",0.527,18.5 nM
"AMO-1 (haematopoietic neoplasm, suspension, top dose 0.25 µM)",0.669,42.7 nM
"HT (B-cell lymphoma, suspension, top dose 0.25 µM)",0.659,41.5 nM
"KM-H2 (Hodgkin lymphoma, suspension, top dose 0.25 µM)",0.963,> 250 nM
"RH-41 (rhabdomyosarcoma, adherent, top dose 2 µM)",0.183,17.5 nM
"NCI-H810 (large cell lung carcinoma, adherent, top dose 0.25 µM)",0.865,205 nM
"NCI-H358 (lung adenocarcinoma, adherent, top dose 2 µM)",0.791,1010 nM
"OVCAR-3 (ovary, adherent, top dose 0.25 µM)",0.885,> 250 nM
"SR (lymphoid neoplasm, suspension, top dose 0.25 µM)",0.588,26.5 nM

Cell Line,AUC,IC50
"SKN (uterus, adherent, top dose 0.25 µM)",0.599,31 nM
"HT-1376 (bladder, adherent, top dose 0.25 µM)",0.914,> 250 nM
"NCI-H1355 (lung adenocarcinoma, adherent, top dose 0.25 µM)",0.642,
"D-247MG (glioma, adherent, top dose 0.25 µM)",0.761,121 nM
"H513 (mesothelioma, semi-adherent, top dose 0.25 µM)",0.785,132 nM
"HCC38 (breast, adherent, top dose 0.25 µM)",0.855,224 nM
"BB49-HNC (head and neck, adherent, top dose 0.25 µM)",0.754,117 nM
"HCC-827 (lung adenocarcinoma, adherent, top dose 0.25 µM)",0.79,131 nM
"NCI-H1648 (lung adenocarcinoma, adherent, top dose 2 µM)",0.48,110 nM
"LoVo (large intestine, adherent, top dose 0.25 µM)",0.68,50.1 nM
"H2595 (mesothelioma, adherent, top dose 0.25 µM)",0.661,52.5 nM
"NH-12 (neuroblastoma, adherent, top dose 0.25 µM)",0.775,111 nM
"NCI-H1563 (lung adenocarcinoma, adherent, top dose 0.25 µM)",0.734,83.7 nM
"DU-145 (prostate, adherent, top dose 0.25 µM)",0.977,> 250 nM
"OC-314 (ovary, adherent, top dose 0.25 µM)",0.711,55.6 nM
"NCI-H446 (small cell lung carcinoma, semi-adherent, top dose 0.25 µM)",0.731,74.9 nM
